Measured values reported in PMC6919601, “Identification of Plasmodium dipeptidyl aminopeptidase allosteric inhibitors by high throughput screening” (PLoS ONE, 2019).
In all, about 110,000 compounds went through this assay and about 230 (0.21%) showed an effect of 50% or more. The list shows a part of the results.

The compounds below were run against DPAP1 (Plasmodium falciparum, UniProt Q8IIJ9) (assay: primary screen, percent inhibition; read by cleavage of a fluorogenic dipeptide substrate; higher = more effect of the substance).
Parameters: species or system P. falciparum D10 trophozoite lysates; single well
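Further: 30 min substrate incubation versus DMSO and 10 µM JCP410 controls.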

Chain of DPAP1 (Q8IIJ9 whole entry, looked up): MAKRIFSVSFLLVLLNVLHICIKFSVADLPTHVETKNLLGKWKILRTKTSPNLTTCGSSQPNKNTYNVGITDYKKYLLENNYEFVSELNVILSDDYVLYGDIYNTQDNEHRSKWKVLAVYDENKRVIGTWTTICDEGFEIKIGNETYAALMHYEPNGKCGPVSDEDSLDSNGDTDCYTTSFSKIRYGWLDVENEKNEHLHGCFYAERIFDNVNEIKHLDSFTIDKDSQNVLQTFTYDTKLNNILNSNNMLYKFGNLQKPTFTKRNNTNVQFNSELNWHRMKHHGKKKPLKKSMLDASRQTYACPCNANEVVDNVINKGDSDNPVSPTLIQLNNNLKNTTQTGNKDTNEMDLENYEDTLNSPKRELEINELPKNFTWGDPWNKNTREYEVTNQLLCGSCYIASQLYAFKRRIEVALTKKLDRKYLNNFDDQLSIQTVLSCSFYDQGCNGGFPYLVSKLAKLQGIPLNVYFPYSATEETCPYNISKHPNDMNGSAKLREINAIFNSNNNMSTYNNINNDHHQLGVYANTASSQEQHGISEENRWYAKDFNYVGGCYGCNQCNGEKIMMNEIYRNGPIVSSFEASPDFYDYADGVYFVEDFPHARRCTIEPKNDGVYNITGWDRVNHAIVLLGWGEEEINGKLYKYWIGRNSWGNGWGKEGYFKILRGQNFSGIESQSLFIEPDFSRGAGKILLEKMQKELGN

Structure (SMILES)	% Inhibition @ 10 uM [%]
CC(C(=O)C12CC3CC(CC(C3)C1)C2)N(C)C (centres unmarked)	-0.615
O=C(Cc1csc2ccccc12)NCc1ccc2c(c1)OCO2	-1.75
COc1ccc(CNCc2cccc(Cl)c2)cc1OC	4.59
OC1CCN(Cc2ccc(Cl)c(Cl)c2)C1 (centres unmarked)	-5.26
CCC(C)NC(=O)C1CCCN(S(=O)(=O)c2c(C)noc2/C=C/N(C)C)C1 (centres unmarked)	-6.52
Cc1ccc2nc3c(O)n(CC(=O)NC4CCCC(C)C4C)ncc-3c2c1 (centres unmarked)	4.58
CCOc1ccc(CNS(=O)(=O)c2csc(C(=O)N3CCCC3)c2)cc1OC	-6.86
OC1(/C=C/C2(O)CCCCC2)CCCCC1	-1.29
CC(C(=O)N1CCN(Cc2ccccc2)CC1)n1sc2ccccc2c1=O (centres unmarked)	-2.94
OCCOc1ccc(C2=NCCO2)cc1	0.135
CCCCOc1ccc(/C=C(\C#N)c2nc(-c3ccc(C)cc3C)cs2)cc1	-0.771
COc1ccc2c(CNCc3ccccc3Cl)c(C(=O)O)n(Cc3ccc(F)cc3Cl)c2c1	3.64
Cc1ccc(COc2ccc(C3C(C#N)=C(N)Oc4cc5c(cc43)OCO5)cc2)cc1 (centres unmarked)	0.565
Cc1ccc(-n2c(SCC(=O)N3CCOCC3)nc(=O)c(Cc3ccccc3)c2O)cc1	-1.07
COC1CCCCC1NCCc1ccc(Cl)cc1 (centres unmarked)	-1.85
O=C1CC(c2ccco2)Cc2nc(NC3CC3)ncc21 (centres unmarked)	1.02
CS(=O)(=O)N1CCC(C(=O)NCCCN2CCCCC2)CC1	-4.97
Cc1cc2n(n1)C(c1cccc(O)c1O)Nc1c(C)cccc1-2 (centres unmarked)	-4.52
O=C(O)C/N=C(\NS(=O)(=O)c1ccc(Cl)cc1)c1ccccc1	1.25
O=c1/c(=C/c2cccc(O)c2)sc2n1CCCN=2	1.21
O=C(Nc1cccc(Cl)c1)Nc1ccccc1OC(F)(F)C(F)Cl (centres unmarked)	2.38
COc1cc(CN2CCCN(C)CC2)cc(OC)c1OC	-3.69
O=c1c2ccccc2nc(/C=C/c2cccnc2)n1-c1ccccc1	1.37
OC(Cn1ccnc1)(c1ccc(F)cc1)c1ccccn1 (centres unmarked)	2.62
CO/C(O)=C1\C(C)=NC(=S)NC1c1cccc2ccccc12 (centres unmarked)	-5.28
CC1(C)[N+]([O-])=c2ccccc2=[N+]1[O-]	1.84

Structure (SMILES)	% Inhibition @ 10 uM [%]
CCCc1cc(Cl)n2c(nc3ccccc32)c1C#N	0.9
Cc1cccc(N/C=C2/C(=O)NC(=O)N(c3ccccc3)C2=O)c1C	2.69
CSc1ccc(/C=c2/sc3nc4c(C)c(C)ccc4n3c2=O)cc1	-0.479
CCOC(=O)c1ccc(CN(Cc2ccccc2)S(=O)(=O)c2ccc(F)cc2)cc1	-1.99
CC(C(=O)NCc1ccc2c(c1)OCO2)n1sc2ccccc2c1=O (centres unmarked)	-2.78
CCCOc1ccc(C(=O)NC2CCS(=O)(=O)C2)cc1 (centres unmarked)	-4.52
CCCN1CN(c2nc3ccccc3s2)CN(c2nc3ccccc3s2)C1	-1.72
O=C(O)Cc1c(-c2ccc(Cl)cc2)nc2ccccc2c1C(=O)O	-0.256
Cc1noc2ncnc(NCCCN3C(C)CCCC3C)c12 (centres unmarked)	-1.79
Cc1c(C(=O)N2CC=C(c3ccccc3)CC2)sc2nc3n(c(=O)c12)CCCCC3	-0.205
Nc1nc(CSc2nnnn2-c2ccc(Cl)cc2)nc(N2CCOCC2)n1	-1.24
COC(=O)C1=CN(C)C=C(C(=O)OC)C1c1ccc(C(F)(F)F)cc1	3.47
O=C(Cn1ncc2c3ccccc3n(Cc3ccccc3F)c2c1=O)NCCc1ccccc1	0.137
O=C(CC(c1ccc(F)cc1)N1Cc2ccccc2C1=O)NC1CCCC1 (centres unmarked)	-1.83
CCCN1CCC(N2CCCC2CO)CC1 (centres unmarked)	-6.62
CCCc1[nH]nc2c1C(c1ccccc1Br)C(C#N)=C(N)O2 (centres unmarked)	-6.27
Cc1ccccc1C(=O)N[C@@H](CC1CCCCC1)C(=O)NCC#N	-1.83
Fc1cccc(Cl)c1-c1nc(-c2ccccc2)c(-c2ccccc2)[nH]1	-0.0217
COc1ccc(C(O)P(=O)(Oc2ccccc2)Oc2ccccc2)cc1 (centres unmarked)	3.74
O=C(C1=C(O)C(=O)N(c2ncccn2)C1c1ccccc1F)c1ccc(F)cc1 (centres unmarked)	-7.61
O=C(Nc1ccccc1Br)C1CC(=O)N(c2ccc(F)cc2)C1 (centres unmarked)	-1.08
COc1cc(/C=C2/C(=N)N3C(SC)=NSC3=NC2=O)ccc1O	-3.79
O=C(Nc1nc(-c2ccc(S(=O)(=O)N3CCCC3)cc2)cs1)c1cccc(Cl)c1	4.31
CC(C)(C)c1cc(CN2CCN(CCN)CC2)cc(C(C)(C)C)c1O	-6.09
COc1ccc(C2C(C(C)=O)=C(C)N(C)C3=C2C(=O)c2ccccc23)cc1 (centres unmarked)	1.86
COc1cc2c(cc1OC)C(c1cc3c(cc1[N+](=O)[O-])OCO3)NCC2 (centres unmarked)	-3.92

Structure (SMILES)	% Inhibition @ 10 uM [%]
Cc1cnc(NC(=O)c2c(O)c3ccccc3n(CCC(C)C)c2=O)s1	1.67
CN(C)CCCN(CCCc1ccccc1)CCCN(C)C	0.273
CCOc1cc(/C=C2/C(=N)N3OC(C)=CC3=NC2=O)ccc1OCCOc1ccc(C)cc1	0.317
CN(C)CCNC(=O)c1ccc(CSc2nc3ccncc3n2Cc2cccc(F)c2)cc1	2.65
CCc1c(C)sc(NC(=O)COc2ccc(F)cc2)c1C#N	0.777
OC1CCCc2c1[nH]c1ccc(OCc3ccccc3)cc21 (centres unmarked)	-3.5
CCN(CC)S(=O)(=O)c1cc(C(=O)O)ccc1C	-2.51
COC(=O)C1=CN(Cc2ccc(OC)cc2)C=C(C(=O)OC)C1c1cccc(Oc2ccccc2)c1	3.45
FC(F)(F)c1ccc(CN2CCN(C/C=C/c3ccccc3)CC2)cc1	-1.86
CN(C)c1ccc(C(=O)Nc2ccc(Cl)c(C(N)=O)c2)cc1	-0.034
CCN(CC)c1sc(S(=O)(=O)CC)nc1S(=O)(=O)c1ccc(C)cc1	-4.04
CCCNS(=O)(=O)c1c[nH]c(C(=O)OC)c1	2.24
Cc1cccc(C)c1-n1nnnc1C(c1ccc(Cl)cc1Cl)N(C)C (centres unmarked)	6.61
O=[N+]([O-])c1ccc(N2CCN(Cc3ccc(Br)o3)CC2)cc1	3.1
COCCCNC(=O)CS(=O)(=O)Cc1nc(-c2ccc(C)cc2)oc1C	-0.138
CC1CCCCN1Cc1csc2c1CCCC2 (centres unmarked)	6.89
CCCCCCNC(=O)C1C2C=CC(C2)C1C(=O)O (centres unmarked)	3.16
OC(C#Cc1ccccc1)c1ccco1 (centres unmarked)	3.82
CCOC(=O)N1CCN(C(=O)C2CCN(c3nc4ccc(CC)cc4s3)CC2)CC1	1.07
CC(C)c1ccc(OCC(=O)N2CCCCC2)c(Br)c1	1.49
COc1ccc(OCC(=O)N2N=C(c3ccc(Br)cc3)CC2(O)C(F)(F)F)cc1 (centres unmarked)	-0.865
COc1cccc(-c2nc(-c3cccnc3)no2)c1	3.01
Nc1c(C(=O)c2ccc(Cl)cc2)oc2ccccc12	-0.99
O=C(O)/C=C/C(=O)c1c(-c2ccccc2)[nH]c2ccccc12	-0.744
Cc1ccccc1NC(=O)COc1ccc(Cl)cc1	4.8
CCc1nnc(NC(=O)CSc2nnc(-c3ccccc3O)n2CC)s1	0.032

Structure (SMILES)	% Inhibition @ 10 uM [%]
Cc1cc(-c2cccs2)c2c(n1)sc1c(O)cc(O)nc12	0.0719
O=C(NC1CCC(NC(=O)C2CCCC2)CC1)C1CCCC1 (centres unmarked)	0.583
CC(C)C[C@H](NC(=O)OCc1ccccc1)C(=O)NC(C#N)c1ccccc1 (some centres unmarked)	9
CCN(CC)CCCNC(=O)Cn1ncc2c3ccccc3n(Cc3c(C)cc(C)cc3C)c2c1=O	1.8
Cc1nnc(N2CCN(C(=O)NC34CC5CC(CC(C5)C3)C4)CC2)c2nn(-c3ccccc3)c(C)c12	3.33
CC1CCN(C(=O)c2cc(Cl)ccc2NC(=O)c2ccco2)CC1	3.86
CCC(=O)CSC1=C(C#N)C(c2ccc(Cl)cc2)C(C(C)=O)=C(C)N1 (centres unmarked)	2.8
COc1ccc(-c2cn3c(C)c(C(=O)NC(C)C)sc3n2)cc1	-0.138
Cc1cc(C(F)(F)F)nn1CC(=O)Nc1sc2c(c1C#N)CCCC2	13
O=C(CN1N=C(c2ccc(Cl)cc2)CCC1=O)NCc1cccnc1	-1.21
CCc1ccc(CN(C)CCN(C)C)cc1	-2.6
C=CCN1C(=O)N/C(=C/c2cc(C)n(-c3sc4c(c3C#N)CCCC4)c2C)C1=O	6.24
CC1(C)Cc2c(sc3nc(SCC(N)=O)n(-c4ccccc4)c(=O)c23)CO1	1.02
COC(=O)C1=C(C)NC(=O)C1(Nc1nc2ccccc2s1)C(F)(F)F (centres unmarked)	-3.33
CCC(C)S(=O)(=O)c1oc(-c2ccc(F)cc2)nc1S(=O)(=O)c1ccccc1 (centres unmarked)	2.14
COc1ccc(-c2[nH]nc3c2C(c2ccc(C(C)C)cc2)C(C#N)=C(N)O3)cc1 (centres unmarked)	7.73
O=C(O)C1CCN(c2ncccn2)CC1	-4.07
O=S(=O)(c1ccc(-n2cnnn2)cc1)N1CCC2(CC1)OCCO2	-0.671
COc1ccc(C(=O)c2cnc3nc(C)ccc3c2O)cc1	1.5
CCN1C(=O)/C(=C/c2cc(C)n(CC)c2C)S/C1=N\c1ccc(N2CCOCC2)cc1	2.84
CCc1c(O)cc(=O)n(-c2ccccc2)c1-c1ccccc1	2.32
O=C(Nc1cnn(Cc2ccc(Cl)cc2Cl)c1)c1cc(-c2ccco2)on1	-5.09
CCN(CC)c1ccc(NC(=O)C(C)N2C(=O)c3ccccc3C2=O)cc1 (centres unmarked)	-9.82
